Measured values taken from the supplement of paper PMC12217912.
The other results are listed elsewhere or left out. Sequences were assembled here from the parent chain. Inactive controls read about 0.05.

B1: TEV protease; numbered along this chain (parent)
chain: MGESLFKGPRDYNPISSSICHLTNESDGHTTSLYGIGFGPFIITNKHLFRRNNGTLVVQSLHGVFKVKDTTTLQQHLVDGRDMIIIRMPKDFPPFPQKLKFREPQREERICLVTTNFQTKSMSSMVSDTSCTFPSGDGIFWKHWIQTKDGQCGSPLVSTRDGFIVGIHSASNFTNTNNYFTSVPKNFMELLTNQEAQQWVSGWRLNADSVLWGGHKVFMVKPEEPFQPVKEATQL

Variants of: B1
Experiment: raw area under fraction-flipped curve 0-4 h after induction (AUC4h, not background-subtracted), DNA-recorder readout of cleavage of the substrate (dimensionless); higher = more cleavage of the substrate by the protease variant
Settings: temperature: 34 °C; time window: 0-4 h after rhamnose induction
Description: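 In vivo DNA recorder in E. coli TOP10(DE3) ΔrhaA at 34 °C. Each TEVp single-site mutant (parent TEVp 0) is paired with a single-site variant of the 7-mer TEVs (canonical ENLYFQ|S). The substrate sits between flexible linkers in a Bxb1-sfGFP-TEVs-SsrA fusion, so cleavage stabilises Bxb1 and speeds flipping of a recombination array, read by NGS. The value is the raw area under the fraction-flipped curve over 0-4 h after rhamnose induction (AUC4h), with ≥20 reads per time point. It is not background-subtracted; inactive controls average about 0.047.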
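Further: Bxb1 expression induced with 0.2% (w/v) L-rhamnose at OD600 near 0.5, cultures sampled hourly, flipped fraction per protease–substrate barcode pair counted by paired-end Illumina sequencing.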

Variant | area with substrate ENAYFQS | area with substrate ENCYFQS | area with substrate ENEYFQS | area with substrate ENFYFQS | area with substrate ENGYFQS | area with substrate ENIYFQS | area with substrate ENMYFQS | area with substrate ENNYFQS | area with substrate ENPYFQS | area with substrate ENQYFQS | area with substrate ENRYFQS | area with substrate ENTYFQS | area with substrate ENVYFQS | area with substrate ENDYFQS | area with substrate ENHYFQS | area with substrate ENWYFQS | area with substrate ENYYFQS | area with substrate ENSYFQS | area with substrate ENKYFQS
MGESLFKGPRDYNPISSSICHLTNESDGHTTSLYGIGFGPFIITNKHLFRVNNGTLVVQSLHGVFKVKDTTTLQQHLVDGRDMIIIRMPKDFPPFPQKLKFREPQREERICLVTTNFQTKSMSSMVSDTSCTFPSGDGIFWKHWIQTKDGQCGSPLVSTRDGFIVGIHSASNFTNTNNYFTSVPKNFMELLTNQEAQQWVSGWRLNADSVLWGGHKVFMVKPEEPFQPVKEATQL [R51V] | 0.0277 | 0.0653 | 0.0675 | 0.0638 | 0.0676 | 0.14 | 0.052 | 0.0654 | 0.0309 | 0.0587 | 0.0584 | 0.0634 | 0.072 |  |  |  |  |  | 
MGESLFKGPRDYNPISSSICHLTNESDGHTTSLYGIGFGPFIITNKHLFRENNGTLVVQSLHGVFKVKDTTTLQQHLVDGRDMIIIRMPKDFPPFPQKLKFREPQREERICLVTTNFQTKSMSSMVSDTSCTFPSGDGIFWKHWIQTKDGQCGSPLVSTRDGFIVGIHSASNFTNTNNYFTSVPKNFMELLTNQEAQQWVSGWRLNADSVLWGGHKVFMVKPEEPFQPVKEATQL [R51E] | 0.0611 | 0.0662 | 0.0611 | 0.0666 | 0.0745 |  | 0.0947 | 0.0579 |  | 0.0663 |  | 0.0634 | 0.073 | 0.0567 | 0.0602 | 0.0631 | 0.0566 |  | 
MGESLFKGPRDYNPISSSICHLTNESDGHTTSLYGIGFGPFIITNKHLFRRNNGTLHVQSLHGVFKVKDTTTLQQHLVDGRDMIIIRMPKDFPPFPQKLKFREPQREERICLVTTNFQTKSMSSMVSDTSCTFPSGDGIFWKHWIQTKDGQCGSPLVSTRDGFIVGIHSASNFTNTNNYFTSVPKNFMELLTNQEAQQWVSGWRLNADSVLWGGHKVFMVKPEEPFQPVKEATQL [V57H] | 0.0581 |  | 0.0668 |  | 0.0567 | 0.102 | 0.0896 |  | 0.0605 | 0.0535 | 0.0524 |  | 0.0902 | 0.0737 |  |  | 0.0553 | 0.0604 | 
MGESLFKGPRDYNPISSSICHLTNESDGHTTSLYGIGFGPFIITNKHLFRRNNGTLFVQSLHGVFKVKDTTTLQQHLVDGRDMIIIRMPKDFPPFPQKLKFREPQREERICLVTTNFQTKSMSSMVSDTSCTFPSGDGIFWKHWIQTKDGQCGSPLVSTRDGFIVGIHSASNFTNTNNYFTSVPKNFMELLTNQEAQQWVSGWRLNADSVLWGGHKVFMVKPEEPFQPVKEATQL [V57F] | 0.0617 | 0.0489 | 0.0479 | 0.0594 |  | 0.13 |  | 0.0599 | 0.0556 | 0.0697 | 0.057 |  | 0.0816 | 0.0553 | 0.059 |  | 0.0562 | 0.0601 | 
MGESLFKGPRDYNPISSSICHLTNESDGHTTSLYGIGFGPFIITNKHLFRRNNGTLPVQSLHGVFKVKDTTTLQQHLVDGRDMIIIRMPKDFPPFPQKLKFREPQREERICLVTTNFQTKSMSSMVSDTSCTFPSGDGIFWKHWIQTKDGQCGSPLVSTRDGFIVGIHSASNFTNTNNYFTSVPKNFMELLTNQEAQQWVSGWRLNADSVLWGGHKVFMVKPEEPFQPVKEATQL [V57P] | 0.0414 |  | 0.0444 | 0.0469 | 0.036 | 0.055 |  |  |  | 0.0432 |  | 0.039 |  | 0.0405 |  |  |  |  | 0.039
MGESLFKGPRDYNPISSSICHLTNESDGHTTSLYGIGFGPFIITNKHLFRRNKGTLVVQSLHGVFKVKDTTTLQQHLVDGRDMIIIRMPKDFPPFPQKLKFREPQREERICLVTTNFQTKSMSSMVSDTSCTFPSGDGIFWKHWIQTKDGQCGSPLVSTRDGFIVGIHSASNFTNTNNYFTSVPKNFMELLTNQEAQQWVSGWRLNADSVLWGGHKVFMVKPEEPFQPVKEATQL [N53K] | 0.064 |  | 0.0638 |  | 0.0463 | 0.0925 |  | 0.0518 | 0.0491 | 0.0651 |  | 0.0517 | 0.0744 | 0.0698 | 0.0531 | 0.0668 | 0.0631 | 0.0581 | 0.0653
MGESLFKGPRDYNPISSSICHLTNESDGHTTSLYGIGFGPFIITNKHLFRRNHGTLVVQSLHGVFKVKDTTTLQQHLVDGRDMIIIRMPKDFPPFPQKLKFREPQREERICLVTTNFQTKSMSSMVSDTSCTFPSGDGIFWKHWIQTKDGQCGSPLVSTRDGFIVGIHSASNFTNTNNYFTSVPKNFMELLTNQEAQQWVSGWRLNADSVLWGGHKVFMVKPEEPFQPVKEATQL [N53H] | 0.0655 | 0.0644 | 0.071 |  | 0.079 |  |  |  | 0.0591 | 0.0633 | 0.0689 |  |  | 0.0633 | 0.0267 |  | 0.0718 | 0.0684 | 0.055
MGESLFKGPRDYNPISSSICHLTNESDGHTTSLYGIGFGPFIITNKHLFSRNNGTLVVQSLHGVFKVKDTTTLQQHLVDGRDMIIIRMPKDFPPFPQKLKFREPQREERICLVTTNFQTKSMSSMVSDTSCTFPSGDGIFWKHWIQTKDGQCGSPLVSTRDGFIVGIHSASNFTNTNNYFTSVPKNFMELLTNQEAQQWVSGWRLNADSVLWGGHKVFMVKPEEPFQPVKEATQL [R50S] | 0.0431 |  |  |  |  | 0.0996 |  |  |  | 0.0604 | 0.0558 |  |  |  |  |  | 0.0441 | 0.0231 | 0.0669
MGESLFKGPRDYNPISSSICHLTNESDGHTTSLYGIGFGPFIITNKHLFARNNGTLVVQSLHGVFKVKDTTTLQQHLVDGRDMIIIRMPKDFPPFPQKLKFREPQREERICLVTTNFQTKSMSSMVSDTSCTFPSGDGIFWKHWIQTKDGQCGSPLVSTRDGFIVGIHSASNFTNTNNYFTSVPKNFMELLTNQEAQQWVSGWRLNADSVLWGGHKVFMVKPEEPFQPVKEATQL [R50A] | 0.0814 | 0.0646 | 0.0757 | 0.0663 | 0.0672 | 0.127 |  | 0.0659 | 0.0533 | 0.064 | 0.0484 | 0.0516 |  | 0.0608 | 0.0648 |  | 0.0585 | 0.0732 | 0.0732
